Sequences and labels used below:
B1: chr7:5977587:5977790:-|CDS|ENSG00000122512|control|control|control (ssRNA)
RNA: GGGAGUUCUACAGUCCGACGAUCCAAAAUUGUAUUCUUUUAGCUCCAGUCACUGAAAGGGCUAAACUGAUUUCCUUGCCAACUAGUAAAAACUGGACCUUCGGACCCCAGGACGUCGAUGAACUGAUCUUCAUGCUGAGCGACCAACAGAGGAUUGAGCAUCA
B2: chr11:35726083:35726184:+|CDS|ENSG00000166326|msi1|total|mutant (ssRNA)
RNA: GGGAGUUCUACAGUCCGACGAUCGAGGCAAUGGCCACAGCUCAUGUGACUGAGAUACUGGCAGACAUCCAAUCCCACAUGGACCGGUUGAUGACUCAGAUGGCCCAAGCCAAGGAACAACUUGAUACCUCUAAUGAAUCAGCUCAACAGAGGAUUGAGCAUCA
B3: chr3:23954599:23954720:+|CDS|ENSG00000174738|unk|total|mutant (ssRNA)
RNA: GGGAGUUCUACAGUCCGACGAUCAGUGAGGGUUCUGAGAACCGUUUCCAGUCCUCCUCCUCUUCUGUUCCAUCUUCUCCAAACCGCUCUAAUUCUGAUACCAAUGGUAAUCCCAAGAAUGGUGAUCUCGCCAAUAUUGAAGGCCAACAGAGGAUUGAGCAUCA
B4: chr19:10690846:10690947:+|3pUTR|ENSG00000129351|msi1|FALSE|bound_elsewhere (ssRNA)
RNA: GGGAGUUCUACAGUCCGACGAUCGAAAGAGGUGAAAGAACAAGUUGUGUGCUAGAAAACUUUUGAGGAAUUCUUAUUUGUGUUAGAGCAGAGGAGGUCCCAGAUACCAAGUGGCGCCUCCCAGGAAAGGCUGGGAGAAGAGGUCAACAGAGGAUUGAGCAUCA
B5: chr4:75876286:75876673:-|CDS|ENSG00000156194|control|control|control (ssRNA)
RNA: GGGAGUUCUACAGUCCGACGAUCCGGUUCCCUGGACGGGCGGGAGCUCUCCCGGCAGGUGCGGAGCUCCGUGGAACUGGAGCUAGAGCGGUGCCGGCAGCAAGCAGGCCUCCUGGUGACCGGAGAGAAAGAGGAGCCCUCCCGCAACAGAGGAUUGAGCAUCA
B6: chr9:125307754:125307855:+|CDS|ENSG00000165219|unk|total|mutant (ssRNA)
RNA: GGGAGUUCUACAGUCCGACGAUCGGCUCUUGACAAUUUAUUGGCAAACCUACCCCCGGCCAAGCCAGGAAAAAGCCGCAGUUCCGAAAUGACUCCCUACAAUACACCUCAGCUAUCUCCAGCAACCACUCCAGCAAAUAAAAACAACAGAGGAUUGAGCAUCA
B7: chr14:80199969:80200157:-|3pUTR|ENSG00000211448|msi1|FALSE|unique (ssRNA)
RNA: GGGAGUUCUACAGUCCGACGAUCUUUAUGAUUUCUUGUGAUGUAUUCUUUUAUGAAAUUAACAAGAACUCAUUAUUUUGAGGUAGAGGAAAAUCAAUGCUUUAUCUGAUAUGCUGAGAAAUUAUUAGAUUGCCAAUACUCAUGCAACAGAGGAUUGAGCAUCA
B8: chr1:32075697:32075801:+|CDS|ENSG00000121775|unk|total|mutant (ssRNA)
RNA: GGGAGUUCUACAGUCCGACGAUCCGAGCUGCCAGUCCAGGCCAGCAUUCUGUUUGAGUUGCAGCUCUUCUUCUGCCAGCUCACCGCACUCUUCGUCCACUACAUCAACAUCUACAAGACAGUGUGGUGGUAUCCACCUUCCCACAACAGAGGAUUGAGCAUCA
B9: chr9:124878635:124878736:-|3pUTR|ENSG00000136935|msi1|FALSE|unique (ssRNA)
RNA: GGGAGUUCUACAGUCCGACGAUCCCAGCCAUUGAACUGGUCCCACACGCACCCCAGGCCCCACUCCUCGGCAGUUUCAGGUGUAGCUGUGGGGCCCGUUCCUAGGUCUGUACUCACUUUAGGGAGGCUUCACUGACUAGGCUUCAACAGAGGAUUGAGCAUCA
B10: chrX:30828625:30828726:-|3pUTR|ENSG00000157625|msi1|total|mutant (ssRNA)
RNA: GGGAGUUCUACAGUCCGACGAUCUUCUUGUUUCUUGUAAGAGGUUUCUUUAAAAUGACCCGUUUGAUGUAUCUGGUAACAUACCGGCCUGACUAUACAUUUUACAUUAUUUCGCUAUUUUGUAAACUGGGAUUUCCGAAAGCACAACAGAGGAUUGAGCAUCA
B11: ENSG00000070961:be:win_5851|3pUTR|ENSG00000070961|bound_else_gene|NA|bound_elsewhere_windowed (ssRNA)
RNA: GGGAGUUCUACAGUCCGACGAUCAUGAAUGUAAUUACCAAAAGAUUUAGAAGUGCAUGUGCUUUGGAGGAUUUGUAUUGAGCUUUUACAGUAUUCAUUUUUCAACUCAAGGCAAUGGCUUUCUACACCAACUCUAAUCCAUAACAACAGAGGAUUGAGCAUCA
B12: chr12:89642165:89642281:-|CDS|ENSG00000070961|unk|total|mutant (ssRNA)
RNA: GGGAGUUCUACAGUCCGACGAUCGCCAAAAACCUUUCUUCAAUCCGUAUGGGAAGCAUUACAAGAUGUCACUUUAAUUAUAUCCGAAAUUGCAGCCACCGUAUCAUUGGGCCUUUCUUUUUAUCAGCCUCCAGAAGGGGAUAACAACAGAGGAUUGAGCAUCA
B13: ENSG00000107863:be:win_4701|CDS|ENSG00000107863|bound_else_gene|NA|bound_elsewhere_windowed (ssRNA)
RNA: GGGAGUUCUACAGUCCGACGAUCCAGUCCAGAAACGAAACAUAGCGAGUUUUUGGCCAACGUCAGCACCAUCACCUCAGAUUAUUCCACCACAUCGUCUGCUACAUACUUGACUAGCCUGGACUCCAGUCGACUGAGCCCUGACAACAGAGGAUUGAGCAUCA
B14: ENSG00000070961:be:win_2651|CDS|ENSG00000070961|bound_else_gene|NA|bound_elsewhere_windowed (ssRNA)
RNA: GGGAGUUCUACAGUCCGACGAUCCUGUGCAGAUGCUGUGGGUAAACCUCAUAAUGGAUACACUCGCUUCCCUGGCUCUGGCAACGGAACCACCCACUGAGUCUCUCUUGCUUCGGAAACCUUAUGGUAGAAAUAAGCCUCUCACAACAGAGGAUUGAGCAUCA

The other results are listed elsewhere or left out.

The experiment addresses MSI1 full-length (mouse, UniProt Q61474 1-362). The experiment can be described thus: nsRBNS (natural sequence RNA bind-n-seq); RBNS binding buffer (assumed for nsRBNS): 25 mM Tris pH 7.5, 150 mM KCl, 3 mM MgCl2, 0.01% Triton X-100, 500 ug/ml BSA, 20 U/ml SUPERase-In, 4 C; UNK is unkempt and MSI1 is Musashi-1; names of the RNAs are library labels; protein concentration not given here; high values mean tight binding.
Sequence of UniProt Q61474 (Q61474 whole entry): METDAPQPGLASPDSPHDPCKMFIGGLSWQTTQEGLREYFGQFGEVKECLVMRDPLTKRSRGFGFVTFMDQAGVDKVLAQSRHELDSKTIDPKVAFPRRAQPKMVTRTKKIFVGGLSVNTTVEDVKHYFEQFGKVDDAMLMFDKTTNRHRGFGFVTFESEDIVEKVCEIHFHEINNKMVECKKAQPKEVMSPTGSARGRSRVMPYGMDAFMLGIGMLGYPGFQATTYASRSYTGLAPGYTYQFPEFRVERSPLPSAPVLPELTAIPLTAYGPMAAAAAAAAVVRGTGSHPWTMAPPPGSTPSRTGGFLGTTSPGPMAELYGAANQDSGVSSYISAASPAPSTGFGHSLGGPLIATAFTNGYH
B1 displayed a binding signal of 0.798 enrichment R.

B2 returned a binding signal of 0.359 enrichment R.

As for B3, the binding signal was determined as 0.482 enrichment R.

Take B4: the binding signal stood at 1.16 enrichment R.

Turning to B5, the binding signal came out at 0.349 enrichment R.

In the case of B6, the binding signal is 0.539 enrichment R.

Molecule B7 registered a binding signal of 0.522 enrichment R.

Molecule B8 registered a binding signal of 0.431 enrichment R.

B9: the binding signal is 0.478 enrichment R.

In turn, B10 showed a binding signal of 0.416 enrichment R.

Regarding B11, the binding signal came out at 5.98 enrichment R.

On to B12, for which the binding signal amounted to 0.453 enrichment R.

B13 gave a binding signal of 0.579 enrichment R.

On to B14, for which the binding signal stood at 0.326 enrichment R.
